Measurements: PMC12820563
The other results are listed elsewhere or left out. The list includes weakly bound sequences.

target: T1, MBP-FoxP3dN (UniProt Q99JB6); assay: PD-seq (MBP pull-down with sequencing); conditions: 20 mM Tris-HCl pH 7.5, 100 mM NaCl, 1.5 mM MgCl2, 0.4 uM protein, 0.1 uM dsDNA library, 30 min, room temperature, amylose pull-down; high values mean tight binding; double strand, one strand shown
T1 sequence: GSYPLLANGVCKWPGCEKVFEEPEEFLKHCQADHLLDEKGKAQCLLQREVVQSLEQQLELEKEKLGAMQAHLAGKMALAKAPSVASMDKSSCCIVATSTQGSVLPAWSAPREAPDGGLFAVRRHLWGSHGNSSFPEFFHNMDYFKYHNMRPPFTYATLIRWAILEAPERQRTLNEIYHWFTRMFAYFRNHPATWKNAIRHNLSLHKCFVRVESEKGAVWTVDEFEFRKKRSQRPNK

Sequence	binding signal (RPM ratio (pull-down/input))
GATGATTGTTCTCCCAGCTGATGAATTAAAGTGCTCGAGTAAACAAATTTTCCTAATCTTTCTGTTCAAGCGCCATCTAC	0.358
GATGATTGTTCTCCCAGCTGATGAATTAAGGCGTTCGAGTAAACAAATTTTCCTAATCTTTCTGTTCAAGCGCCATCTAC	1.44
GATGATTGTTCTCCCAGCTGATGAATTACTTCATTCGAGTAAACAAATTTTCCTAATCTTTCTGTTCAAGCGCCATCTAC	0.35
GATGATTGTTCTCCCAGCTGATGAATTATCAGTATCGAGTAAACAAATTTTCCTAATCTTTCTGTTCAAGCGCCATCTAC	0.498
GATGATTGTTCTCCCAGCTGATGAATTGGTACTCTCGAGTAAACAAATTTTCCTAATCTTTCTGTTCAAGCGCCATCTAC	0.554
GATGATTGTTCTCCCAGCTGATGAATTAGAGACTTCGAGTAAACAAATTTTCCTAATCTTTCTGTTCAAGCGCCATCTAC	0.502
GATGATTGTTCTCCCAGCTGATGAATTTCTAAGGTCGAGTAAACAAATTTTCCTAATCTTTCTGTTCAAGCGCCATCTAC	0.189
GATGATTGTTCTCCCAGCTGATGAATTAACGATGTCGAGTAAACAAATTTTCCTAATCTTTCTGTTCAAGCGCCATCTAC	0.4
GATGATTGTTCTCCCAGCTGATGAATTCACGCGTTCGAGTAAACAAATTTTCCTAATCTTTCTGTTCAAGCGCCATCTAC	1.46
GATGATTGTTCTCCCAGCTGATGAATTGTTAGGCTCGAGTAAACAAATTTTCCTAATCTTTCTGTTCAAGCGCCATCTAC	0.88
GATGATTGTTCTCCCAGCTGATGAATTACGAACCTCGAGTAAACAAATTTTCCTAATCTTTCTGTTCAAGCGCCATCTAC	0.325
GATGATTGTTCTCCCAGCTGATGAATTTCTTGACTCGAGTAAACAAATTTTCCTAATCTTTCTGTTCAAGCGCCATCTAC	0.549
GATGATTGTTCTCCCAGCTGATGAATTCTACTAATCGAGTAAACAAATTTTCCTAATCTTTCTGTTCAAGCGCCATCTAC	0.28
GATGATTGTTCTCCCAGCTGATGAATTTCCAGAATCGAGTAAACAAATTTTCCTAATCTTTCTGTTCAAGCGCCATCTAC	0.144
GATGATTGTTCTCCCAGCTGATGAATTCTACACTTCGAGTAAACAAATTTTCCTAATCTTTCTGTTCAAGCGCCATCTAC	0.354
GATGATTGTTCTCCCAGCTGATGAATTACACCGATCGAGTAAACAAATTTTCCTAATCTTTCTGTTCAAGCGCCATCTAC	0.458
GATGATTGTTCTCCCAGCTGATGAATTTAAAGCGTCGAGTAAACAAATTTTCCTAATCTTTCTGTTCAAGCGCCATCTAC	0.538
GATGATTGTTCTCCCAGCTGATGAATTACTGCGATCGAGTAAACAAATTTTCCTAATCTTTCTGTTCAAGCGCCATCTAC	0.586
GATGATTGTTCTCCCAGCTGATGAATTTCTCGCATCGAGTAAACAAATTTTCCTAATCTTTCTGTTCAAGCGCCATCTAC	0.861
GATGATTGTTCTCCCAGCTGATGAATTGGCGACCTCGAGTAAACAAATTTTCCTAATCTTTCTGTTCAAGCGCCATCTAC	0.465

Sequence	binding signal (RPM ratio (pull-down/input))
GATGATTGTTCTCCCAGCTGATGAATTACCTAGGTCGAGTAAACAAATTTTCCTAATCTTTCTGTTCAAGCGCCATCTAC	0.184
GATGATTGTTCTCCCAGCTGATGAATTTCTAGCCTCGAGTAAACAAATTTTCCTAATCTTTCTGTTCAAGCGCCATCTAC	0.347
GATGATTGTTCTCCCAGCTGATGAATTCTAGTGCTCGAGTAAACAAATTTTCCTAATCTTTCTGTTCAAGCGCCATCTAC	0.438
GATGATTGTTCTCCCAGCTGATGAATTCAGAGCCTCGAGTAAACAAATTTTCCTAATCTTTCTGTTCAAGCGCCATCTAC	0.42
GATGATTGTTCTCCCAGCTGATGAATTAATCTGCTCGAGTAAACAAATTTTCCTAATCTTTCTGTTCAAGCGCCATCTAC	0.34
GATGATTGTTCTCCCAGCTGATGAATTAAGCGTGTCGAGTAAACAAATTTTCCTAATCTTTCTGTTCAAGCGCCATCTAC	3.59
GATGATTGTTCTCCCAGCTGATGAATTGTGTATTTCGAGTAAACAAATTTTCCTAATCTTTCTGTTCAAGCGCCATCTAC	5.82
GATGATTGTTCTCCCAGCTGATGAATTCGGGGCGTCGAGTAAACAAATTTTCCTAATCTTTCTGTTCAAGCGCCATCTAC	0.51
GATGATTGTTCTCCCAGCTGATGAATTCCTGCCCTCGAGTAAACAAATTTTCCTAATCTTTCTGTTCAAGCGCCATCTAC	0.321
GATGATTGTTCTCCCAGCTGATGAATTGGCTGTATCGAGTAAACAAATTTTCCTAATCTTTCTGTTCAAGCGCCATCTAC	0.902
GATGATTGTTCTCCCAGCTGATGAATTTTCAAGCTCGAGTAAACAAATTTTCCTAATCTTTCTGTTCAAGCGCCATCTAC	0.223
GATGATTGTTCTCCCAGCTGATGAATTCATGCCGTCGAGTAAACAAATTTTCCTAATCTTTCTGTTCAAGCGCCATCTAC	0.721
GATGATTGTTCTCCCAGCTGATGAATTCGTTAAATCGAGTAAACAAATTTTCCTAATCTTTCTGTTCAAGCGCCATCTAC	0.213
GATGATTGTTCTCCCAGCTGATGAATTCAGTCTTTCGAGTAAACAAATTTTCCTAATCTTTCTGTTCAAGCGCCATCTAC	0.561
GATGATTGTTCTCCCAGCTGATGAATTGAGCTGCTCGAGTAAACAAATTTTCCTAATCTTTCTGTTCAAGCGCCATCTAC	0.424
GATGATTGTTCTCCCAGCTGATGAATTTATTCGTTCGAGTAAACAAATTTTCCTAATCTTTCTGTTCAAGCGCCATCTAC	1.02
GATGATTGTTCTCCCAGCTGATGAATTATCTTGGTCGAGTAAACAAATTTTCCTAATCTTTCTGTTCAAGCGCCATCTAC	0.323
GATGATTGTTCTCCCAGCTGATGAATTCCATATCTCGAGTAAACAAATTTTCCTAATCTTTCTGTTCAAGCGCCATCTAC	0.632
GATGATTGTTCTCCCAGCTGATGAATTCGCTTCTTCGAGTAAACAAATTTTCCTAATCTTTCTGTTCAAGCGCCATCTAC	0.73
GATGATTGTTCTCCCAGCTGATGAATTTGAACCGTCGAGTAAACAAATTTTCCTAATCTTTCTGTTCAAGCGCCATCTAC	0.292
